The campaign covered roughly 420,000 compounds. About 50,000 (12%) were called active. The inconclusive results got no clear call from the source; some entries with a clear call stand among them for comparison. The call rests on the fitted dose curve; in most records, active means well fitted inhibition curve with a large enough effect; inconclusive means small, poorly fitted or top-dose-only effect; inactive means flat fitted curve, though single readings scatter. Potencies of inconclusive entries are left out as doubtful fits.
Assay: qHTS for Inhibitors of human tyrosyl-DNA phosphodiesterase 1 (TDP1): qHTS in cells in presence of CPT; further: nearly all actives have a fitted effect of over 55% in size
Conditions: chicken DT40 Tdp1-/-;hTDP1 cells + 20 nM CPT, ATP luminescence, 48 h; activity change, negative = growth inhibition: at 46.2 µM (top of the series) unless noted
Outline: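 Chicken DT40 Tdp1-/- cells complemented with human TDP1, 400 cells/well, exposed to compounds plus 20 nM camptothecin for at least 48 h at 37 C; viability read as ATP content by CellTiter-Glo luminescence.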
For COc1cc(NC(=O)c2cn(C3CCCC3)c(=O)c3c2c2ccccc2n3C)cc(OC)c1OC, the Potency was inconclusive [inhibitor, single point].
With O=C(C(c1ccccc1)c1ccccc1)N1CCN(Cc2ccco2)CC1 the Potency was inconclusive [inhibitor, single point].
For COc1cc(NC(=O)c2ccco2)c(OC)cc1NC(=O)c1cc(OC)c(OC)c(OC)c1, the Potency was inconclusive [inhibitor, single point].
For CCOC(=O)c1cnc(-c2ccccc2)nc1Oc1ccc(Cl)c(Cl)c1, the Potency was “inactive”.
With O=C(Cn1cnc2ccccc21)OCC(=O)N1CCc2ccccc2C1 the Potency was “inactive”.
In the case of Cc1ccc(-n2c(=O)cc(NCc3cccnc3)[nH]c2=O)cc1, the Potency is reported as “inactive”.
For Cc1cccc(NC(=O)CSc2ncnc3c2oc2ccccc23)c1, the Potency was inconclusive [inhibitor, partial curve].
For O=C(Nc1ccc(-c2ccc(N3CCCCC3)nn2)cc1)c1ccco1, the Potency was inconclusive [inhibitor, single point].
In the case of Cn1nccc1C(=O)Nc1cccc(C(F)(F)F)c1, the Potency is reported as “inactive”.
In the case of CCCOC(=O)c1ccc(NC(=O)/C=C/c2cccs2)cc1, the Potency is reported as inconclusive [inhibitor, single point].
In the case of CC(C)COc1ccc(C(=O)NCc2ccco2)cc1, the Potency is reported as inconclusive [inhibitor, single point].
With O=C(O)Cn1nncc1-c1ccc(C(F)(F)F)cc1 the Potency was “inactive”.
In the case of c1ccc(OCC2CCNCC2)nc1, the Potency is reported as “inactive”.
In the case of COc1ccc(N2CCN(CCCNC(=O)Cn3c(-c4cccs4)cc4ccccc43)CC2)cc1, the Potency is reported as active: 18.4 µM.
For C=CCn1c(=O)c2ccccc2n2c(SCc3csc(-c4ccccc4)n3)nnc12, the Potency was inconclusive [inhibitor, single point].
For COc1ccc(N=C2O/C(=C/c3sc(=S)n(CC4CCCO4)c3O)N=C2C#N)cc1 (stereo not drawn), the Potency was inconclusive [inhibitor, partial curve, poor fit].
For CCOc1ccc(CNS(=O)(=O)c2ccc(-c3coc(C)n3)cc2)cc1, the Potency was inconclusive [inhibitor, single point].
In the case of CC1=C(C(=O)N(C)C)CC(CC(=O)NCC2CCCCC2)C(=O)N1CCCN1CCCC1=O (stereo not drawn), the Potency is reported as “inactive”.
In the case of CCCOc1ccccc1N/C(N)=N/c1nc(C)cc(C)n1, the activity change, negative = growth inhibition is reported as inconclusive: -36.5% [inhibitor].
In the case of O=C(CSC1=NCCN1)NC1CCCCCC1, the Potency is reported as inconclusive [inhibitor, single point].
For O=C(NCc1nc(-c2ccc(C(F)(F)F)cc2)no1)c1cccs1, the Potency was inconclusive [inhibitor, single point].
With COc1cccc(NC(=O)c2c(C)nn(-c3ccccc3)c2Cl)c1 the Potency was inconclusive [inhibitor, single point].
In the case of COC(=O)C1=NN(c2ccccc2)C2(S1)SC(C(C)=O)=C(C)N2c1ccccc1 (stereo not drawn), the activity change, negative = growth inhibition is reported as inconclusive: -31.3% [inhibitor].
In the case of COc1ccc(NC(=O)CSc2nnc(Cc3ccc(C)cc3)c(=O)n2N)cc1, the Potency is reported as “inactive”.
For CCCN(CC1CC1)c1cc2c(c3c1ccn3C)C1CCC2C1 (stereo not drawn), the Potency was inconclusive [inhibitor, single point].
With O=C(Nc1ccc(Cl)cc1C(=O)NCc1cccnc1)c1ccc(Cl)cc1Cl the Potency was inconclusive [inhibitor, single point].
In the case of O=C(C[C@@H]1C/C=C\C[C@H](Cc2ccc(F)cc2)C(=O)OC[C@@H](c2ccccc2)NC1=O)NCCO, the Potency is reported as inconclusive [inhibitor, single point].
With O=C(CCSc1ccccc1Cl)Nc1cccc([N+](=O)[O-])c1 the Potency was “inactive”.
For O=C(Cc1sc(-c2ccccc2Cl)nc1-c1ccccc1)Nc1ccccc1, the Potency was inconclusive [inhibitor, single point].
With CN1C(=O)[C@H]2[C@@H](/C=C/c3ccccc3)N3C(=O)CN(CC4CC4)C(=O)[C@@]3(C)[C@H]2C1=O the Potency was “inactive”.
For O=C(CSc1nc2ccccc2c(=O)n1-c1ccccc1)N1CCc2ccccc2C1, the Potency was active: 25.9 µM.
With COc1ccc2nc(N(Cc3cccnc3)C(=O)C3CCCCC3)sc2c1 the Potency was inconclusive [inhibitor, single point].
For N#C/C(=C(/O)COC(=O)c1ccc(C#N)cc1)c1nc2ccccc2s1, the Potency was inconclusive [inhibitor, single point].
In the case of Cc1ccccc1CNC(=O)CCC(=O)N1CCOc2ccc(Cl)cc21, the Potency is reported as “inactive”.
For CCC(C)Sc1cccc(-c2nc3cnccn3c2NC2CCCCC2)c1 (stereo not drawn), the Potency was active: 20.6 µM.
In the case of Cc1ccc(S(=O)(=O)N2CCN(C(=O)COC(=O)/C=C/c3cccc(Cl)c3)CC2)c(C)c1, the Potency is reported as inconclusive [inhibitor, partial curve, poor fit].
For Cc1ccc(C(=O)/C=C/c2cn(CC(O)CN3CCOCC3)c3ccccc23)cc1 (stereo not drawn), the Potency was inconclusive [inhibitor, single point].
For CCOC(=O)c1cc(S(=O)(=O)N2CCN(c3ccccc3F)CC2)[nH]n1, the Potency was inconclusive [inhibitor, partial curve].
With CCN(CC)CCCN(C(=O)c1cccs1)c1nc(-c2ccc(OC)cc2)cs1 the Potency was active: 18.4 µM.
With Cc1cc(Br)c2nc(-c3ccccc3)c(Cc3cccc(Cl)c3)n2c1 the Potency was inconclusive [inhibitor, single point].
In the case of Cc1nc2ccc(S(=O)(=O)N(C)CC(=O)Nc3cccc(C(F)(F)F)c3)cc2s1, the Potency is reported as inconclusive [inhibitor, single point].
In the case of COc1ccc2[nH]c(=O)c(CN(Cc3nnnn3Cc3ccco3)C3CCCCC3)cc2c1, the Potency is reported as inconclusive [inhibitor, single point].
With Cc1ccc(C(=O)Nc2ccccc2-c2ccccc2)cc1[N+](=O)[O-] the activity change, negative = growth inhibition was inconclusive: -30.5% [inhibitor].
In the case of O=C(C=Cc1ccccc1F)c1ccccc1, the Potency is reported as inconclusive [inhibitor, single point].
For COc1ccc(C(=O)NCC(c2ccco2)N2CCc3ccccc32)cc1OC (stereo not drawn), the Potency was inconclusive [inhibitor, partial curve].
With COc1ccc(CCNC(=O)c2c(O)c3c([nH]c2=O)CCCC3)cc1OC the Potency was inconclusive [inhibitor, partial curve].
For CCCNC(=O)c1cc2c(c(-c3cccc(-c4ccccc4F)c3)n1)[C@H](CCO)N(C(=O)CC1CC1)C2, the Potency was active: 16.4 µM.
In the case of FC(F)(F)c1cc(CN2CCC3(CCNCC3)CC2)cc(C(F)(F)F)c1, the Potency is reported as active: 6.51 µM.
With O=C(O)COc1ccccc1/C=C1\SC(=O)N(Cc2ccc(F)cc2)C1=O the Potency was “inactive”.
In the case of OCC(O)COc1cccc2ccccc12 (stereo not drawn), the Potency is reported as “inactive”.
In the case of N=c1c2c3c(sc2ncn1Cc1ccco1)CCCCC3, the Potency is reported as inconclusive [inhibitor, single point].
With COc1cccc(CNC(=O)CCC(=O)N2CC(C)Oc3ccccc32)c1OC (stereo not drawn) the Potency was inconclusive [inhibitor, single point].
In the case of COc1ccc(C(=O)N2CC3(CC(c4cccc(NC(=O)CC(c5ccccc5)c5ccccc5)c4)=NO3)C[C@H]2C(N)=O)cc1 (stereo partly drawn), the Potency is reported as inconclusive [inhibitor, single point].
With COc1ccccc1CNC(=O)[C@@H]1CCCN1S(=O)(=O)c1ccccc1F the Potency was “inactive”.
For COc1ncnc2c1ncn2CCCNCc1ccccn1, the Potency was “inactive”.
For CCCCN(CC)CCCNC(=O)Nc1sc2nc3n(c(=O)c2c1C)CCC(C)CC3 (stereo not drawn), the Potency was inconclusive [inhibitor, single point].
In the case of COCCCN1CC(=O)N2Cc3[nH]c4ccccc4c3C[C@H]2C1=O, the Potency is reported as “inactive”.
With CC#CC[N+](C)(C)CCCCCCCCCCCC the Potency was active: 0.58 µM.
With COc1cccc(-c2ccc3ncnc(NCc4cccnc4)c3c2)c1 the Potency was active: 11.6 µM.
With O=C(N[C@H]1CC1c1ccccc1)c1ccc([N+](=O)[O-])cc1 (stereo partly drawn) the Potency was inconclusive [inhibitor, single point].
For Cc1cc(C)nc(NS(=O)(=O)c2ccc(NC(=S)NC(=O)CC(C)C)cc2)n1, the Potency was “inactive”.
In the case of CC1(c2nnc(-c3ccncc3)o2)CC(c2cccc(Cl)c2)=NO1 (stereo not drawn), the Potency is reported as “inactive”.
In the case of CC1(C)Cc2c(c(N3CCOCC3)nc3sc4c(NCC5CCCO5)nnnc4c23)CS1 (stereo not drawn), the Potency is reported as “inactive”.
In the case of CC12CCC(=O)C=C1CCCC2=O (stereo not drawn), the Potency is reported as “inactive”.
For Cc1ccc(NS(=O)(=O)c2ccc3c(c2)c(=O)n(C)c(=O)n3C)cc1F, the Potency was active: 14.6 µM.
In the case of O=C1NC(=O)C(Cc2cccc(Oc3ccccc3)c2)S1 (stereo not drawn), the Potency is reported as inconclusive [inhibitor, single point].
With Cc1ccc2[nH]c3c(N4CCN(Cc5ccccc5)CC4)ncnc3c2c1 the Potency was active: 13 µM.
In the case of COc1cc2cc(C(C)(C)O)oc(=O)c2cc1OC, the Potency is reported as inconclusive [inhibitor, single point].
In the case of O=C1CC(c2ccccc2)c2ccccc21 (stereo not drawn), the Potency is reported as inconclusive [inhibitor, full curve].
With COc1ccc(Cl)c2sc(N(Cc3cccnc3)C(C)=O)nc12 the Potency was “inactive”.
With CCOC(=O)c1c(NC(=O)CSc2nnc(-c3ccco3)o2)sc(C(C)=O)c1C the Potency was inconclusive [inhibitor, partial curve].
For CCOC(=O)CSc1nc2c(sc(=S)n2-c2ccccc2)c(=O)n1-c1ccc(OC)cc1OC, the Potency was inconclusive [inhibitor, single point].
In the case of CC1CN(C(=S)NC(=O)c2cccc([N+](=O)[O-])c2)CC(C)O1 (stereo not drawn), the Potency is reported as inconclusive [inhibitor, single point].
On the % scale 0 is the no-effect control and ±100 the full control effect; potency means the concentration at half of the fitted maximal effect; tags describe the fitted curve by direction and shape.
